Switch fluorescence ratio data for 67 sequences are collected here from the supplement of paper PMC10126150.

Sequences with one replicate were seen in a single cluster, so their values are uncertain.
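Also: ATP exposure 15 min at 22 °C before imaging.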

The data set has as its system ATP. As to the kind of experiment: switch fluorescence ratio, 500 uM ATP over buffer (Cy3 cluster intensity, sum of 5 cycles each) (fold (ratio)); higher = stronger signal-on switching upon ATP binding; sequences stand for … in TCGTCGGCAGCGTCAGATGTGTATAAGAGACAGTTTTTTTTTTTTTTTTTTTTTTTTT…TC. To be noted: aptamer strand: ATP DNA aptamer (quencher-CACCTGGGGGAGTATTGCGGAGGAAGG + anchor), 100 nM annealed; ATP concentration: 500 uM; one replicate. The essentials: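 Values give the fluorescence ratio for each switch-domain sequence, averaged from per-cluster ratios of summed target-cycle to summed buffer-cycle Cy3 intensity. The Cy3-labelled switching-strand clusters sat on a modified Illumina MiSeq flow-cell, were annealed to 100 nM quencher-labelled ATP aptamer, and were imaged in selection buffer, then after 15 min with 500 uM ATP at 22 °C. Five cycles ran with NaOH stripping and re-annealing between them, and clusters outside 100-1000 RFU were excluded.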
As to TTTTATTTAA, the switch fluorescence ratio is 0.988. With TTCCGAATGA the figure was 1.16; with TTGTTGGTC, 0.929; with TGTTGCTGCG, 1.65. With AAGCCTCGGG the figure was 1.02; with ATCGCGGTCT, 0.969. With GAGCACTGCG the figure was 1.06; with CCACGCTGTA, 1.14; with GTCGAGACAG, 0.975.

For TACGGATAG, the switch fluorescence ratio was determined as 1.03. With TGAGGCTGCG the figure was 0.975. On to CGGCAGAACT, for which the switch fluorescence ratio stood at 2.64. Take GGCTATGGTT: the switch fluorescence ratio came out at 1.01.

Consider CTGCCAGGCA, for which the switch fluorescence ratio is 1.04. With ATTCCATGAC the figure was 0.977; with TAATATGAAT, 0.99; with TGACAACTGG, 1.01. For CCTATAACGA, the switch fluorescence ratio came to 1.05. Regarding ACACGTTTGC, the switch fluorescence ratio came to 1.04. TAACCGCTGA: the switch fluorescence ratio amounted to 1.29.

Regarding GATTCTGGGC, the switch fluorescence ratio was found to be 0.961. With ATATGAAGG the figure was 1.01. In the case of ACTTGGATC, the switch fluorescence ratio turned out to be 1.03. Next, GTTGGAATCA: 0.995; GCACTTGCAC: 1.04; CTCGTCGTGA: 1.03.

Take TATGAATGA: the switch fluorescence ratio came out at 1.08. Next, TTTGATTGGC: 1.01; TACGAGTACG: 1.1. Next, GTTTGAGGAC: 0.959; GGAGTGTCTG: 1.03. Consider GGTCACGGAT, for which the switch fluorescence ratio is 0.903.

For the sequence TCGTGTATGG, the switch fluorescence ratio turned out to be 0.967. Next, GGTCGACGTT: 1. AGAGAACTGG: the switch fluorescence ratio was 1.01.

Regarding AGTCGCGGCG, the switch fluorescence ratio stood at 1.02.

Take CGATGATCTG: the switch fluorescence ratio was 0.977.

In the case of TAAGCTATC, the switch fluorescence ratio was 1.13. Next, ATCAGTTCAC: 1.01; GACCTGATGA: 1.01. With GTACGCAACG the figure was 1.23; with GTGATAATTA, 1.03. With ACAGTCGGGT the figure was 1.02. For AACTGCGTTT, the switch fluorescence ratio was 0.982. With GAGGTCCTCT the figure was 1.01.

As for CCGCACACCA, the switch fluorescence ratio is 2.39.

With TATCCAGATT, the switch fluorescence ratio turned out to be 0.976.

Regarding GGGTGAGTAT, the switch fluorescence ratio came to 1.03.

With AAAGTGGATA, the switch fluorescence ratio was 1.01.

As for AGAATCACGG, the switch fluorescence ratio was 1.07.

As for ACAGCGTTGG, the switch fluorescence ratio came out at 1.02. With TGAGGCTTCA the figure was 1.07; with TCTCCGTCTG, 1.98; with GGCTTAAGCC, 0.967. Next, TTATTGTTTG: 1.02; AATAAACGTT: 1.06; GCAACGTTCT: 0.967. With GCCTGAGCGG, the switch fluorescence ratio is 1.

As to AATGCTGCCC, the switch fluorescence ratio came to 1.04.

For the sequence TCTGTAACCG, the switch fluorescence ratio came out at 0.99.

Take AATTTCTAAC: the switch fluorescence ratio is 0.994.

For CCCATTATTT, the switch fluorescence ratio amounted to 0.957. With TAGAAATCAG the figure was 1. With AATGTCCAGC, the switch fluorescence ratio was 1.03. With AAAACGATAG the figure was 0.961. Next, GCTTTACTT: 1.03. With ATGCCGATTG the figure was 1.
